Among all 220,000 compounds or so, about 2,300 (1%) were called active. The shares of active, inactive and inconclusive entries below differ from those in the screen. Calls follow the shape of the dose curve; as a rule, active = well fitted inhibition curve with a large enough effect; inconclusive = small, poorly fitted or top-dose-only effect, or effect the other way; inactive = no such curve, though single readings can be large or run the other way. Potencies of inconclusive entries are left out as doubtful fits.
target: Neuropeptide S receptor (Homo sapiens) (UniProt Q6W5P4); assay: qHTS Assay for Antagonists of the Neuropeptide S Receptor: cAMP Signal Transduction; conditions: CHO-NPSR cells, cAMP TR-FRET, antagonist mode; series mostly up to 38.3 µM; also: nearly all actives have a fitted effect of over 50% in size
UniProt Q6W5P4, sequence (Q6W5P4 whole entry, looked up): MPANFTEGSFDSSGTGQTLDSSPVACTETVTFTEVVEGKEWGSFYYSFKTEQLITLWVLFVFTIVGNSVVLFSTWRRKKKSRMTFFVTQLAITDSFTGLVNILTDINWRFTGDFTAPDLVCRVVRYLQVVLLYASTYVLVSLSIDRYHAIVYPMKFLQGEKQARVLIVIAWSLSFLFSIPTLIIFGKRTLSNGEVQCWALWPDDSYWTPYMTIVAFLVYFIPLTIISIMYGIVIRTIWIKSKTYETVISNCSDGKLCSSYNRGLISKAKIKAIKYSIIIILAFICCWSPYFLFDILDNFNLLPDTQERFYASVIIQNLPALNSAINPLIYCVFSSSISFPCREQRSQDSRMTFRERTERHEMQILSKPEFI
Potency is read from the fitted curve at half-maximal effect; tags tell the direction and shape of the fitted curve.

Q: How did the Potency turn out when `CC(=O)c1ccc(NC(=O)c2ccc(CSc3ccccc3)o2)cc1` was run?
A: The Potency was inconclusive [inhibitor, single point].

Q: How did the Potency turn out when `Cc1cccc2cc(CN(Cc3nnnn3Cc3ccco3)C3CCCC3)c3nnnn3c12` was run?
A: The Potency was inconclusive [inhibitor, partial curve, poor fit].

Q: For `O=C(c1ccc(Cl)c(S(=O)(=O)NCc2ccccc2)c1)N1CCN(c2ccccn2)CC1`, which Potency is on record?
A: The Potency was inconclusive [inhibitor, single point].

Q: Which Potency does the source give for `COCCn1c(C)cc(C(=O)CSc2ncnc3sc4c(c23)CCC4)c1C` here?
A: The Potency was inconclusive [inhibitor, partial curve, poor fit].

Q: `CCCCCc1ccc(OCCCC[n+]2ccc(C)cc2)c(CCCCC)c1` was tested. Which Potency did it give?
A: Its Potency is inconclusive [activator, single point].

Q: Which Potency does the source give for `CCN(Cc1ccccc1)C(c1ccc(C)cc1)c1nnnn1C(C)(C)C` (centres undefined) here?
A: Its Potency is inconclusive [inhibitor, single point].

Q: `COc1cccc(C(=O)Nc2cccc(OCC(=O)c3ccccc3)c2)c1` was tested. Which Potency did it give?
A: The Potency was “inactive”.

Q: With `CCOC(=O)C1CCN(C(=O)c2oc3ccc(S(=O)(=O)N4CCCCCC4)cc3c2C)CC1` as the molecule, how does the Potency read?
A: The Potency was inconclusive [inhibitor, partial curve].

Q: `Cn1nccc1C(=O)N1CCc2c([nH]c3ccccc23)C1c1ccc(F)cc1` (centres undefined) was tested. Which Potency did it give?
A: The Potency was inconclusive [activator, single point].

Q: How did the Potency turn out when `O=S(=O)(NCc1ccco1)c1cnc(Cl)c(Br)c1` was run?
A: The Potency was “inactive”.

Q: Which Potency does the source give for `O=C(NC1CCCCC1)C(c1ccccc1F)N(Cc1ccco1)C(=O)Cn1nnc2ccccc21` (centres undefined) here?
A: The Potency was inconclusive [inhibitor, partial curve].

Q: `Clc1ccc(OCc2nn3c(-c4ccco4)nnc3s2)c(Cl)c1` was tested. Which Potency did it give?
A: The Potency was “inactive”.

Q: Which Potency does the source give for `CCOC(=O)CSc1nnc(CNC(=O)c2ccc(OC)cc2OC)n1-c1ccc(OC)cc1` here?
A: The Potency was inconclusive [inhibitor, single point].

Q: For `CCn1cc(CNCc2ccc(OCC(O)CN(C)Cc3ccccc3)cc2)cn1` (centres undefined), which Potency is on record?
A: The Potency was “inactive”.

Q: How did the Potency turn out when `COc1ccc2nc3c(cc2c1)c(NC(=O)c1cccs1)nn3CC(C)C` was run?
A: The Potency was inconclusive [inhibitor, single point].

Q: Which Potency does the source give for `COc1ccc2oc(=O)c(C(=O)Nc3ccccc3-c3ccccc3)cc2c1` here?
A: The Potency was inconclusive [inhibitor, single point].

Q: `Cc1ccc(NC(=O)c2ccc(N/N=C/c3cccc(O)c3)c([N+](=O)[O-])c2)cc1` was tested. Which Potency did it give?
A: The Potency was inconclusive [inhibitor, single point].

Q: `O=C(NCc1ccc2c(c1)OCO2)c1ccc(N2CCCCCC2)c([N+](=O)[O-])c1` was tested. Which Potency did it give?
A: Its Potency is “inactive”.

Q: `CCc1c(C#N)c(SCCC(=O)Nc2ccc(OC)cc2)nc2c1C(=O)CC(C)(C)C2` was tested. Which Potency did it give?
A: Its Potency is inconclusive [inhibitor, single point].

Q: How did the Potency turn out when `CCCOc1ccc(N2C(=O)CC(N(Cc3ccc(OC)cc3)C(=S)Nc3ccccc3)C2=O)cc1` (centres undefined) was run?
A: The Potency was “inactive”.

Q: `C=CCN=c1scc(-c2ccco2)n1/N=C/c1ccc(O)c(O)c1O` was tested. Which Potency did it give?
A: The Potency was “inactive”.

Q: With `Cn1nc([N+](=O)[O-])c(C(C#N)c2nc3ccccc3n2C)c(Cl)c1=O` (centres undefined) as the molecule, how does the Potency read?
A: The Potency was “inactive”.

Q: How did the Potency turn out when `CCS(=O)(=O)Nc1cccc(-c2cc(-c3ccccc3)c3cc(C)ccc3n2)c1` was run?
A: Its Potency is inconclusive [inhibitor, single point].

Q: With `O=C(Nc1cccc(Cl)c1)c1ccc2c(=O)n3c(nc2c1)CCCCC3` as the molecule, how does the Potency read?
A: Its Potency is inconclusive [inhibitor, partial curve, poor fit].

Q: For `Cn1c(=O)c2c(ncn2CC(=O)N2CCCc3ccccc32)n(C)c1=O`, which Potency is on record?
A: The Potency was “inactive”.

Q: With `CCOC(=O)Nc1ccc(Oc2ccccc2)cc1` as the molecule, how does the Potency read?
A: Its Potency is “inactive”.

Q: With `Cc1csc(NC(=O)CSCC(=O)O)c1-c1nc2ccccc2s1` as the molecule, how does the Potency read?
A: The Potency was inconclusive [activator, partial curve].

Q: Which Potency does the source give for `CCC(C)(C)n1nnnc1CN(Cc1cc2cc(OC)ccc2[nH]c1=O)C1CCCC1` here?
A: The Potency was inconclusive [inhibitor, single point].

Q: `CC1CC(Nc2ccccc2)c2ccccc2N1C(=O)c1ccco1` (centres undefined) was tested. Which Potency did it give?
A: The Potency was inconclusive [inhibitor, single point].

Q: How did the Potency turn out when `O=C(/C(N=Nc1cccc([N+](=O)[O-])c1)=C(/O)c1ccc(Br)cc1)C(F)(F)F` was run?
A: The Potency was active: 6.31 µM.

Q: `O=C(O)c1ccccc1NCc1ccncc1` was tested. Which Potency did it give?
A: The Potency was “inactive”.

Q: How did the Potency turn out when `O=C1/C(=C/c2ccccc2)NC(=S)N1C(c1ccccc1)c1ccccc1` was run?
A: Its Potency is inconclusive [activator, single point].

Q: With `CCN1C(=O)C2(C(C(=O)c3cc4ccccc4o3)=C(O)C(=O)N2CCCN2CCOCC2)c2ccccc21` (centres undefined) as the molecule, how does the Potency read?
A: Its Potency is active: 7.94 µM.

Q: With `COc1ccc(O)c(-c2[nH]ncc2C(=O)c2ccccc2)c1` as the molecule, how does the Potency read?
A: The Potency was “inactive”.

Q: Which Potency does the source give for `COc1ccc(C2Nc3ccccc3C(=O)N2c2ccc(C)cc2)cc1Cn1nnc2ccccc21` (centres undefined) here?
A: The Potency was inconclusive [inhibitor, partial curve].

Q: With `COc1ccccc1-c1cc(C(F)(F)F)nc(S(=O)(=O)CCCC(=O)N2CCCCC2C)n1` (centres undefined) as the molecule, how does the Potency read?
A: The Potency was inconclusive [inhibitor, single point].

Q: `COc1ccc(-n2c(=O)c3ccccc3n(CC(=O)Nc3cccc(OC)c3)c2=O)cc1` was tested. Which Potency did it give?
A: Its Potency is “inactive”.

Q: How did the Potency turn out when `COC(=O)c1cc(-c2c(C)oc3cc(OC(C)C)ccc3c2=O)c(C)o1` was run?
A: Its Potency is inconclusive [inhibitor, partial curve].

Q: How did the Potency turn out when `C=CS(=O)(=O)c1sc(Cl)c(N2CCOCC2)c1[N+](=O)[O-]` was run?
A: Its Potency is inconclusive [activator, single point].

Q: How did the Potency turn out when `O=C(N/N=C/c1ccc(Cl)cc1)Nc1ccccc1` was run?
A: The Potency was inconclusive [inhibitor, partial curve].

Q: `C/C(=N\NC(=O)c1ccco1)c1ccc(NC(=O)c2ccccc2)cc1` was tested. Which Potency did it give?
A: Its Potency is “inactive”.

Q: `COc1cccc(CNc2cnc3ccccc3c2)c1O` was tested. Which Potency did it give?
A: The Potency was “inactive”.

Q: For `C=CCOC(=O)C1=C[C@@H](c2csc3ccccc23)C[C@@H](OCc2ccc(CO)cc2)O1`, which Potency is on record?
A: Its Potency is inconclusive [activator, single point].

Q: `O=C(CSc1nnc2n1CCCN2)c1ccc(Cl)cc1` was tested. Which Potency did it give?
A: Its Potency is “inactive”.

Q: With `CCN(C(=O)c1cnc(NC(C)C)cc1C(F)(F)F)c1ccc(Cl)cc1` as the molecule, how does the Potency read?
A: The Potency was inconclusive [activator, partial curve].

Q: Which Potency does the source give for `CC1CCc2nc(NC(=O)Nc3ccc4c(c3)OCO4)sc2C1` (centres undefined) here?
A: The Potency was inconclusive [inhibitor, partial curve].

Q: How did the Potency turn out when `O=S(=O)(c1ccc(N2CC=C(c3ccccc3)CC2)nc1)N1CCCC1` was run?
A: The Potency was inconclusive [inhibitor, single point].

Q: `Cn1nnc2cc(C(=O)NC(C)(C)C)ccc21` was tested. Which Potency did it give?
A: Its Potency is “inactive”.

Q: Which Potency does the source give for `CCOC(=O)C1=C(C)N=C2SC(C)C(=O)N2C1c1ccc(OC(C)=O)c(OC)c1` (centres undefined) here?
A: The Potency was “inactive”.

Q: Which Potency does the source give for `CCOC(=O)C(C)Sc1nc(C2CC2)cc(C(F)(F)F)c1C#N` (centres undefined) here?
A: The Potency was inconclusive [inhibitor, partial curve, poor fit].

Q: Which Potency does the source give for `O=C(Cn1cnc2c(nnn2Cc2ccc(F)cc2)c1=O)NCc1ccco1` here?
A: Its Potency is “inactive”.

Q: How did the Potency turn out when `CC(=O)n1cc([C@H]2C=C(C(=O)N3CCN(Cc4ccc5c(c4)OCO5)CC3)O[C@@H](OCCCCO)C2)c2ccccc21` was run?
A: Its Potency is inconclusive [activator, partial curve].

Q: `COC(=O)C1=C(C)N=C2SC(C)C(=O)N2C1c1cccc(F)c1` (centres undefined) was tested. Which Potency did it give?
A: Its Potency is inconclusive [inhibitor, single point].

Q: For `CC(=O)Nc1ccc(S(=O)(=O)Oc2ccccc2N2CCCCC2)cc1`, which Potency is on record?
A: Its Potency is inconclusive [inhibitor, single point].

Q: `Cc1ccc(OCCn2c(C)c(/C=N/n3cnnc3)c3ccccc32)cc1` was tested. Which Potency did it give?
A: The Potency was inconclusive [activator, full curve, poor fit].

Q: For `CN(C)/N=C/c1ccc(OC(=O)c2cccc([N+](=O)[O-])c2)cc1`, which Potency is on record?
A: The Potency was “inactive”.

Q: Which Potency does the source give for `Cc1ccc2nc(SCC(=O)NCC3CCCO3)c(C#N)cc2c1` (centres undefined) here?
A: Its Potency is inconclusive [activator, single point].

Q: How did the Potency turn out when `CC(C)C1C(C#N)=C(N)SC(N)=C1C#N` was run?
A: The Potency was “inactive”.

Q: For `Cc1cc(N2CCOCC2)c2c(N)c(C)cc(C)c2n1`, which Potency is on record?
A: Its Potency is inconclusive [inhibitor, partial curve].

Q: How did the Potency turn out when `CCOC(=O)c1c(N)sc(C(=O)Nc2ccccc2)c1C` was run?
A: Its Potency is “inactive”.

Q: Which Potency does the source give for `Cc1cccc(N2CCN(C(c3ccccc3)c3nnnn3CC3CCCO3)CC2)c1C` (centres undefined) here?
A: The Potency was inconclusive [inhibitor, single point].

Q: `CCn1c(-c2cccn(Cc3ccccc3)c2=O)n[nH]c1=S` was tested. Which Potency did it give?
A: Its Potency is “inactive”.

Q: `Cc1nc(N2CCN(Cc3ccc(Cl)cc3)CC2)c2oc3ccccc3c2n1` was tested. Which Potency did it give?
A: The Potency was inconclusive [inhibitor, single point].

Q: With `CC(=O)Oc1ccc(C2OC(=O)c3ccccc3N2C(C)=O)cc1` (centres undefined) as the molecule, how does the Potency read?
A: Its Potency is inconclusive [inhibitor, partial curve].

Q: With `Cc1nc(SCC(=O)Nc2ccc(C)c(F)c2)c2oc3ccccc3c2n1` as the molecule, how does the Potency read?
A: Its Potency is inconclusive [inhibitor, single point].

Q: How did the Potency turn out when `CCOC(=O)c1cc(C#N)c(SCC(=O)OC)[nH]c1=O` was run?
A: Its Potency is inconclusive [inhibitor, single point].

Q: For `COc1c(F)c(F)c(C(=O)Nc2ccc(N3CCN(Cc4ccccc4)CC3)cc2)c(F)c1F`, which Potency is on record?
A: Its Potency is inconclusive [inhibitor, single point].

Q: Which Potency does the source give for `CCCCC(=O)NC(c1cccc([N+](=O)[O-])c1)c1c(OC(C)=O)ccc2ccccc12` (centres undefined) here?
A: The Potency was inconclusive [inhibitor, single point].

Q: For `O=C(Nc1ncc(Br)s1)C(Cc1ccccc1)n1cccc1` (centres undefined), which Potency is on record?
A: Its Potency is inconclusive [inhibitor, single point].

From PubChem BioAssay AID1461 (National Center for Advancing Translational Sciences (NCATS), 2008)
